About 4,700 (1.2%) of roughly 390,000 compounds were called active. The shares of active, inactive and inconclusive entries below differ from those in the screen. Calls follow the shape of the dose curve; as a rule, active = well fitted inhibition curve with a large enough effect; inconclusive = small, poorly fitted or top-dose-only effect, or another doubt; inactive = no such curve, though single readings can be large or run the other way. Where the call is inconclusive, the potency comes from a doubtful curve fit.
Target: DNA polymerase eta (Homo sapiens) (UniProt Q9Y253)
Sequence of UniProt Q9Y253 (Q9Y253 whole entry, looked up): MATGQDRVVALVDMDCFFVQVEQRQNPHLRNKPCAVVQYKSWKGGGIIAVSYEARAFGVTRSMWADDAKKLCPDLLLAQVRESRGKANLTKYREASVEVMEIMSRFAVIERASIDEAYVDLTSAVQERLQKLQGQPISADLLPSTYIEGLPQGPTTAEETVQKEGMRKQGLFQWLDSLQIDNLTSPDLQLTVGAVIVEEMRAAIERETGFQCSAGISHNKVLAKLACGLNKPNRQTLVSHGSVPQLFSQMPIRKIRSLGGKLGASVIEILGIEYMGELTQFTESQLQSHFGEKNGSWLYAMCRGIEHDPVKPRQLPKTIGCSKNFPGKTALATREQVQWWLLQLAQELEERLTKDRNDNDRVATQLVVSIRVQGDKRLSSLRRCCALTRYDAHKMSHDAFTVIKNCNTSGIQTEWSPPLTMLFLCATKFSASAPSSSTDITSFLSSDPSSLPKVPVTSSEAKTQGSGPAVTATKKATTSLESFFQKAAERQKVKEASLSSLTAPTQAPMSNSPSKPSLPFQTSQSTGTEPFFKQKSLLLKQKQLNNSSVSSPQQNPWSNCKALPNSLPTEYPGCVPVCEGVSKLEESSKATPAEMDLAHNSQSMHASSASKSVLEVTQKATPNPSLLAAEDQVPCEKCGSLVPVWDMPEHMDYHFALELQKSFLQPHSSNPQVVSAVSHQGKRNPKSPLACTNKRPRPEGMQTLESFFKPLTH
Assay: qHTS for Inhibitors of Polymerase Eta
Settings: recombinant Pol eta, fluorescent DNA replication assay; series mostly up to 114 µM; activity change, negative = inhibition: at the top concentration
How it was run: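 Pol eta (10 nM) was preincubated with compounds for 15 min at room temperature, after which fluorescent replication substrate (50 nM final) was added to start the reaction. Fluorescence was read kinetically at 0 and 10 min.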
% is scaled to controls: 0 for no effect and ±100 for the full control effect; potency is read from the fitted curve at half-maximal effect; tags tell the direction and shape of the fitted curve.

| SMILES | Potency | activity change, negative = inhibition |
| --- | --- | --- |
| COc1ccc(/C=N/NC(=O)c2ccc(=O)[nH]n2)cc1OC | inconclusive: 28.2 µM [inhibitor, partial curve, poor fit] | – |
| CCC(=O)Nc1ccc(N2CCCCC2)c(C(=O)Nc2ccc(OC)cc2)c1 | inconclusive: 44.7 µM [inhibitor, partial curve, poor fit] | – |
| COc1ccc(-c2csc(NC(=O)C3CC(=O)N(c4ccc5c(c4)OCCO5)C3)n2)cc1 (configuration not stated) | inconclusive: 17.8 µM [inhibitor, partial curve, poor fit] | – |
| COc1ccc(Cc2nnc(SCC(=O)NC3(C#N)CCCCC3)n2N)cc1 | – | inactive: -6.55% |
| CCCCN(CCCC)S(=O)(=O)c1ccc(NC(=O)Cc2cccs2)cc1 | active: 79.4 µM | – |
| CCOC(=O)N(C)C[C@H]1OCc2cnnn2CCCC(=O)N([C@@H](C)CO)C[C@@H]1C | – | inactive: -11% |
| Cc1c(C)c2c(OCC(=O)N3CCC(O)CC3)cc3c(c2oc1=O)CCC(C)(C)O3 | inconclusive: 89.1 µM [inhibitor, partial curve, poor fit] | – |
| Cc1cc(C2C(C#N)=C(N)SC(N)=C2C#N)c(C)s1 | inconclusive: 39.8 µM [inhibitor, partial curve, poor fit] | – |
| CN(C)/C=C/C(=O)/C=C/c1cn(-c2ncc(C(F)(F)F)cc2Cl)c2ccccc12 | – | inactive: -16.9% |
| NC(CSC(c1ccccc1)(c1ccccc1)c1ccccc1)C(=O)O (configuration not stated) | inconclusive: 22.4 µM [inhibitor, partial curve, poor fit] | – |
| COc1ccc(C(=O)NC(c2ccccc2Cl)c2cc(Cl)c3cccnc3c2O)cc1 (configuration not stated) | inconclusive: 79.4 µM [inhibitor, partial curve, poor fit] | – |
| Cc1cccc(N2CC(C(=O)Nc3nnc(SCC(=O)NCC4CCCO4)s3)CC2=O)c1 (configuration not stated) | active: 20 µM | – |
| O=C(COC(=O)c1ccc2ccccc2c1O)NCC(F)(F)F | inconclusive: 35.5 µM [inhibitor, single point] | – |
| O=C(NN=C1C2CC3CC1CC(Cl)(C3)C2)c1ccccn1 | – | inactive: -15.6% |
| CC(C)(CN1CCCCC1)NS(=O)(=O)c1ccc(Cl)cc1 | inconclusive: 5.01 µM [inhibitor, partial curve, poor fit] | – |
| CC(C)OCCCN1C(=O)c2[nH]nc(-c3ccccc3O)c2C1c1ccccc1F (configuration not stated) | – | inactive: -7.44% |
| Oc1c(C=C2N=c3ccccc3=N2)sc(=S)n1-c1ccccc1 | – | inactive: -15.5% |
| CN(C)c1ccc(/C=C2\C(=N)N3N=C(CC(=O)N4CCCCC4)SC3=NC2=O)cc1 | inconclusive: 31.6 µM [inhibitor, single point] | – |
| CC(=O)Nc1ccc(N=Cc2c(O)c(C(=O)Nc3ccccc3)cc3ccccc23)cc1 | inconclusive: 44.7 µM [inhibitor, partial curve, poor fit] | – |
| Cc1cc(N2CCN(c3cccc(C)c3C)CC2)nc(-c2ccccc2)n1 | inconclusive: 50.1 µM [inhibitor, partial curve, poor fit] | – |
| O=C1C(=C2CCCCC2)SC(=S)N1Cc1ccco1 | inconclusive: 2.51 µM [inhibitor, full curve, poor fit] | – |

| SMILES | Potency | activity change, negative = inhibition |
| --- | --- | --- |
| CN(C)c1ccc(C(=O)Nc2ccc(S(=O)(=O)NC3=NCCCCC3)cc2)cc1 | inconclusive: 89.1 µM [inhibitor, partial curve] | – |
| Cn1nnnc1SCC1=C(C(=O)O)N2C(=O)C(NC(=O)C3CC3c3ccccc3)C2SC1 (configuration not stated) | active: 14.1 µM | – |
| CCOc1ccc(C(C)=O)cc1COC(=O)CNC(=O)C12CC3CC(CC(C3)C1)C2 | inconclusive: 79.4 µM [inhibitor, partial curve, poor fit] | – |
| C[C@@H](CN1C2=NC[C@H](Cc3ccc(O)cc3)N2C[C@H]1Cc1ccc(O)cc1)NC(=O)CCC1CCCCC1 | inconclusive: 79.4 µM [inhibitor, partial curve, poor fit] | – |
| COc1ccc(/C=C2\SC(=S)N(NS(=O)(=O)c3ccccc3)C2=O)c(OC)c1 | inconclusive: 89.1 µM [inhibitor, single point] | – |
| Nc1ccc2nc3c(=O)n(C4CCCCC4)c(=O)[nH]c3nc2c1 | inconclusive: 79.4 µM [inhibitor, partial curve, poor fit] | – |
| CCO[C@H]1OC(C(=O)N2CCN(Cc3ccc4c(c3)OCO4)CC2)=C[C@@H](c2ccc(C(F)(F)F)cc2)[C@@H]1CCCO | inconclusive: 79.4 µM [inhibitor, partial curve, poor fit] | – |
| COC(=O)c1c(-c2ccc(Cl)cc2)noc1N1CCN(c2ccccc2OC)CC1 | inconclusive: 1 µM [inhibitor, partial curve, poor fit] | – |
| Oc1[nH]c2ccccc2c1N=Nc1ccccc1F | inconclusive: 10 µM [inhibitor, partial curve, poor fit] | – |
| CC(C)c1ccccc1NC(=O)CCc1nc2ccccc2s1 | inconclusive: 22.4 µM [inhibitor, partial curve, poor fit] | – |
| O=C(Nc1ccccc1C(=O)NC(Cc1ccccc1)C(=O)O)c1ccco1 (configuration not stated) | inconclusive: 39.8 µM [inhibitor, partial curve, poor fit] | – |
| O=C1CCCC(O)=C1N=Nc1ccc(C(=O)O)cc1 | active: 3.16 µM | – |
| CCc1c(C)sc(NC(=O)c2cc3nc(-c4ccc(OC)cc4)cc(C(F)(F)F)n3n2)c1C(=O)OC | – | inactive: -9.94% |
| Cc1ccc(S(=O)(=O)/N=C2/C=C(Sc3ncn[nH]3)C(=O)c3ccccc32)cc1 | active: 3.55 µM | – |
| Cc1ccc(NC(=O)/C(C#N)=C(\N)C(Cl)(Cl)Cl)nc1 | active: 44.7 µM | – |
| O=C(/C=C/c1cccc([N+](=O)[O-])c1)c1ccc([N+](=O)[O-])o1 | inconclusive: 56.2 µM [inhibitor, partial curve, poor fit] | – |
| S=C(NCCCc1ccccc1)Nc1ccc(Cl)cc1 | inconclusive: 39.8 µM [inhibitor, full curve, poor fit] | – |
| O=C(Nc1ccc(NC(=O)c2cccs2)cc1)c1ccc(Br)o1 | inconclusive: 14.1 µM [inhibitor, partial curve] | – |
| O=c1[nH][nH]c2c(N=Cc3ccccc3O)ccc(F)c12 | active: 3.16 µM | – |
| CN(C)Cc1cc(C(F)(F)F)ccc1C(O)(c1ccccc1)c1ccccc1 | inconclusive: 31.6 µM [inhibitor, partial curve, poor fit] | – |
| COc1cc(/C=C2\CCCc3c2nc2ccccc2c3C(=O)O)cc([N+](=O)[O-])c1O | active: 20 µM | – |

| SMILES | Potency | activity change, negative = inhibition |
| --- | --- | --- |
| Cc1ccn2c(=O)nc(SCC(=O)Nc3cccc4ccccc34)nc2c1 | active: 79.4 µM | – |
| N#C/C(=C\c1ccc(-c2ccc(C(=O)O)cc2)o1)C(=O)Nc1ccc(F)cc1 | active: 5.62 µM | – |
| O=C(N/N=C/c1ccc(-c2ccccc2[N+](=O)[O-])o1)c1cccnc1 | inconclusive: 15.8 µM [inhibitor, partial curve, poor fit] | – |
| CC(C)CCOc1ccc(C(CC(N)=O)C(=O)O)cc1 (configuration not stated) | – | inactive: -13.6% |
| Cc1cc(-c2ccccc2)nc2cc(C(N)=O)nn12 | inconclusive: 39.8 µM [inhibitor, single point] | – |
| NC(=O)NC(CC(=O)OCC(=O)NC(=O)NCc1ccco1)c1ccc(Cl)cc1 (configuration not stated) | inconclusive: 31.6 µM [inhibitor, partial curve] | – |
| Cc1ccc(S(=O)(=O)Nc2ccccc2)cc1[N+](=O)[O-] | inconclusive: 50.1 µM [inhibitor, partial curve, poor fit] | – |
| CCN1C(=O)c2cccc3c(S(=O)(=O)NCCc4c[nH]c5ccccc45)ccc1c23 | inconclusive: 39.8 µM [inhibitor, partial curve, poor fit] | – |
| COC(=O)c1c(C(=O)OC)c2cccc3cc(-c4ccccc4)c4ccc1c4n32 | inconclusive: 31.6 µM [inhibitor, partial curve, poor fit] | – |
| Cc1ccc(NC(=O)Cn2nnc(C(=O)NCc3ccco3)c2N)cc1 | inconclusive: 20 µM [inhibitor, partial curve, poor fit] | – |
| COc1ccc(OCC(=O)Nc2cc(NC(=O)c3ccco3)ccc2OC)cc1 | – | inactive: -5.8% |
| COc1ccc(C(=O)Nc2ccccc2C(=O)NC2CC2)c(OC)c1OC | – | inactive: -16.9% |
| Cc1nn2c(NC(C)C)c3c(nc2c1-c1ccccc1)CCC3 | inconclusive: 20 µM [inhibitor, partial curve, poor fit] | – |
| CC(=O)c1ccc(NC(=O)c2cn(-c3ccccc3)nc2-c2ccncc2)cc1 | inconclusive: 39.8 µM [inhibitor, partial curve, poor fit] | – |
| Cc1ccc(CNC(=O)Cn2cnc(C(=O)Nc3ccc(C)c(C)c3)n2)o1 | inconclusive: 79.4 µM [inhibitor, partial curve, poor fit] | – |
| Cc1ccc(NC(=O)CN(C)C(=O)CCC(=O)c2cccs2)cc1 | inconclusive: 22.4 µM [inhibitor, partial curve] | – |
| Cc1cccc2nc(CSc3nc4ccc([N+](=O)[O-])cc4[nH]3)c(Br)n12 | inconclusive: 31.6 µM [inhibitor, partial curve, poor fit] | – |
| Cc1ccc(C(C)C)c(OCC(=O)Nc2sc3c(c2C#N)CC(C)(C)NC3(C)C)c1 | inconclusive: 89.1 µM [inhibitor, partial curve, poor fit] | – |
| COc1cc(C2Nc3cc(Cl)c(S(N)(=O)=O)cc3S(=O)(=O)N2)ccc1OCc1ccccc1 (configuration not stated) | inconclusive: 14.1 µM [inhibitor, full curve, poor fit] | – |
| Cc1cccc(C(=O)n2c(=S)nc3cc(C)ccn32)c1 | inconclusive: 20 µM [inhibitor, full curve, poor fit] | – |

Source: PubChem BioAssay AID588591 (National Center for Advancing Translational Sciences (NCATS), 2011)
